{"source": "the BET-seq Pho4 binding data (Le et al. 2018)", "note": "Some of the results follow. Values were computed here from the reads of four pooled replicates and scatter widely."}
{"biological_target": "T1, Pho4 (S. cerevisiae) (UniProt P07270)", "T1 sequence": "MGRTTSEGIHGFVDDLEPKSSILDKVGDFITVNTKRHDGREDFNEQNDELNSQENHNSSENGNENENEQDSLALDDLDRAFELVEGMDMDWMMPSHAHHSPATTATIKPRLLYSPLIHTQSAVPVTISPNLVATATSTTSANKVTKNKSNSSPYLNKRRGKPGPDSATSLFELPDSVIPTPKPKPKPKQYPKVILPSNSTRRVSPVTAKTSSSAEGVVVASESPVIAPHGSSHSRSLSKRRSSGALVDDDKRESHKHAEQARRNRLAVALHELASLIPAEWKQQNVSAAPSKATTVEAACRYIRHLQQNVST", "experiment": "relative binding free energy (BET-seq); higher = weaker binding", "settings": "reference: library average", "units": {"relative binding free energy": "kcal/mol"}}
{"sequence": "GTGTTCACGTGAATGG", "relative binding free energy": 0.37}
{"sequence": "TTTGGCACGTGAGAGC", "relative binding free energy": 0}
{"sequence": "TGTTTCACGTGTAGAT", "relative binding free energy": 0.25}
{"sequence": "CGGGTCACGTGGAGTA", "relative binding free energy": 0.14}
{"sequence": "ATTCTCACGTGGTGAG", "relative binding free energy": 0.2}
{"sequence": "GGTCACACGTGACGTG", "relative binding free energy": 0.46}
{"sequence": "TATAGCACGTGGATAT", "relative binding free energy": -0.02}
{"sequence": "TTAGTCACGTGATGCA", "relative binding free energy": 0.13}
{"sequence": "TTACTCACGTGAGTTT", "relative binding free energy": 0.22}
{"sequence": "GTGCTCACGTGTTGAA", "relative binding free energy": 0.23}
{"sequence": "CCTAGCACGTGTGGGT", "relative binding free energy": 0}
{"sequence": "AGTTTCACGTGGATGG", "relative binding free energy": 0.28}
{"sequence": "GGCTTCACGTGTAAGG", "relative binding free energy": 0.28}
{"sequence": "TAGTTCACGTGGGACG", "relative binding free energy": 0.07}
{"sequence": "TAGGACACGTGGCAGT", "relative binding free energy": -0.12}
{"sequence": "TTGAACACGTGTAGAG", "relative binding free energy": 0.15}
{"sequence": "CGTTTCACGTGGAATA", "relative binding free energy": 0.46}
{"sequence": "ATGGACACGTGGTAGG", "relative binding free energy": 0.07}
{"sequence": "ACGCTCACGTGTTGTT", "relative binding free energy": 0.24}
{"sequence": "TTATGCACGTGTGCAT", "relative binding free energy": -0.1}
{"sequence": "GTAATCACGTGGTGGG", "relative binding free energy": 0.14}
{"sequence": "GTGGGCACGTGTGCGA", "relative binding free energy": -0.2}
{"sequence": "GGGCTCACGTGTATGG", "relative binding free energy": 0.21}
{"sequence": "GCGTGCACGTGGAGGT", "relative binding free energy": -0.05}
{"sequence": "GGGGTCACGTGCCGTG", "relative binding free energy": -0.02}
{"sequence": "CTGTGCACGTGGTCTG", "relative binding free energy": -0.17}
{"sequence": "CTGGTCACGTGTGACG", "relative binding free energy": 0.09}
{"sequence": "GCGGACACGTGGAAGT", "relative binding free energy": 0.26}
{"sequence": "ATTTGCACGTGGTCGT", "relative binding free energy": -0.08}
{"sequence": "ATGATCACGTGAAGGG", "relative binding free energy": 0.23}
{"sequence": "TGTTACACGTGGTTTC", "relative binding free energy": 0.18}
{"sequence": "CTTGGCACGTGCGTGG", "relative binding free energy": -0.27}
{"sequence": "TAGTACACGTGCTGAG", "relative binding free energy": 0.12}
{"sequence": "TAAGGCACGTGGATTT", "relative binding free energy": 0.03}
{"sequence": "AATGGCACGTGGCGTG", "relative binding free energy": -0.26}
{"sequence": "CGGGACACGTGGCAGT", "relative binding free energy": -0.01}
{"sequence": "AGGCGCACGTGGGTGC", "relative binding free energy": -0.24}
{"sequence": "TCGGGCACGTGTTAAA", "relative binding free energy": 0.02}
{"sequence": "TTGGGCACGTGGGCGG", "relative binding free energy": -0.17}
{"sequence": "TAGGTCACGTGGTGGA", "relative binding free energy": 0.1}
{"sequence": "CGCTGCACGTGGGGAG", "relative binding free energy": -0.14}
{"sequence": "AAGGTCACGTGTCAAT", "relative binding free energy": 0.28}
{"sequence": "AGTGTCACGTGGTCGC", "relative binding free energy": -0.25}
{"sequence": "GGACTCACGTGTGGGG", "relative binding free energy": 0.22}
{"sequence": "TAGTTCACGTGCTCTT", "relative binding free energy": 0.28}
{"sequence": "TGTTGCACGTGCAGAT", "relative binding free energy": -0.05}
{"sequence": "TGTAGCACGTGCAGGC", "relative binding free energy": -0.14}
{"sequence": "ATATACACGTGTATGG", "relative binding free energy": -0.01}
{"sequence": "GAGGGCACGTGGTGAA", "relative binding free energy": -0.11}
{"sequence": "ATTAGCACGTGTGGGG", "relative binding free energy": -0.11}
{"sequence": "TAATACACGTGAGAGG", "relative binding free energy": 0.36}
{"sequence": "ATTTGCACGTGGGATG", "relative binding free energy": -0.2}
{"sequence": "TGGGGCACGTGGATCA", "relative binding free energy": -0.26}
{"sequence": "TGACACACGTGGGTAG", "relative binding free energy": -0.1}
{"sequence": "GTGTTCACGTGTCGTT", "relative binding free energy": 0.19}
{"sequence": "CAAGTCACGTGTTGGG", "relative binding free energy": 0.12}
{"sequence": "GGAATCACGTGCGGGA", "relative binding free energy": 0.24}
{"sequence": "TAGGTCACGTGGAGGG", "relative binding free energy": 0.12}
{"sequence": "CATTTCACGTGATGTG", "relative binding free energy": 0.11}
{"sequence": "CTTTTCACGTGGTGGA", "relative binding free energy": 0.24}
{"sequence": "GAGATCACGTGATGGA", "relative binding free energy": 0.36}
{"sequence": "TTATCCACGTGGTTAT", "relative binding free energy": -0.01}
{"sequence": "TAAGGCACGTGTAAGT", "relative binding free energy": 0.08}
{"sequence": "TAATACACGTGAGTAT", "relative binding free energy": 0.15}
{"sequence": "TAGAGCACGTGGTTCA", "relative binding free energy": -0.08}
{"sequence": "TGCAACACGTGTAGGG", "relative binding free energy": 0.04}
{"sequence": "GCTTGCACGTGTCGGG", "relative binding free energy": 0.14}
{"sequence": "TTTACCACGTGGTCTG", "relative binding free energy": -0.12}
{"sequence": "TCGTGCACGTGAGGGT", "relative binding free energy": 0.12}
{"sequence": "TATATCACGTGATGAG", "relative binding free energy": 0.23}
{"sequence": "GGATGCACGTGGCGTA", "relative binding free energy": -0.12}
{"sequence": "TGTGCCACGTGTGGCG", "relative binding free energy": 0.02}
{"sequence": "TTTTACACGTGAGGCG", "relative binding free energy": 0.23}
{"sequence": "GGTCGCACGTGTAAGT", "relative binding free energy": 0.1}
{"sequence": "GAGGGCACGTGGGAAC", "relative binding free energy": -0.13}
{"sequence": "TGATACACGTGTTTGT", "relative binding free energy": 0.04}
{"sequence": "AGGTTCACGTGAATTT", "relative binding free energy": 0.34}
{"sequence": "TGATTCACGTGGGGGA", "relative binding free energy": 0.23}
{"sequence": "TAAGTCACGTGTAGAT", "relative binding free energy": 0.31}
{"sequence": "ATAGACACGTGCGGTT", "relative binding free energy": -0.04}
{"sequence": "AATTGCACGTGATGGA", "relative binding free energy": 0.12}
{"sequence": "TTTAACACGTGGTTAG", "relative binding free energy": 0}
{"sequence": "GTATTCACGTGATGGT", "relative binding free energy": 0.44}
{"sequence": "ATGGACACGTGCATGT", "relative binding free energy": -0.03}
{"sequence": "CGTTACACGTGGTGGT", "relative binding free energy": 0.04}
{"sequence": "AAAGGCACGTGGGCGG", "relative binding free energy": -0.21}
{"sequence": "TCTTGCACGTGTGACG", "relative binding free energy": 0.15}
{"sequence": "AGGAGCACGTGTCATG", "relative binding free energy": -0.05}
{"sequence": "TTCAACACGTGTGGGC", "relative binding free energy": 0.09}
{"sequence": "TGCGACACGTGTGTGT", "relative binding free energy": -0.03}
{"sequence": "TGGCCCACGTGGGGGT", "relative binding free energy": -0.34}
{"sequence": "TCGGTCACGTGTCTTG", "relative binding free energy": 0.15}
{"sequence": "AAAGGCACGTGGCAGT", "relative binding free energy": -0.16}
{"sequence": "GTATGCACGTGCAGGT", "relative binding free energy": 0.02}
{"sequence": "TGAAGCACGTGTGGAA", "relative binding free energy": -0.02}
{"sequence": "CGATGCACGTGAGTGA", "relative binding free energy": 0.32}
{"sequence": "GTGGTCACGTGTGGGC", "relative binding free energy": 0.21}
{"sequence": "GCGTTCACGTGTTTGA", "relative binding free energy": 0.11}
{"sequence": "GAGTGCACGTGAAGTG", "relative binding free energy": 0.18}
{"sequence": "TGGAACACGTGCTGGT", "relative binding free energy": 0.02}
{"sequence": "GGGTACACGTGCGTGG", "relative binding free energy": 0.03}
{"sequence": "TGGTACACGTGTTGTT", "relative binding free energy": 0.06}
{"sequence": "CTTGGCACGTGGGGCA", "relative binding free energy": -0.22}
{"sequence": "TTATGCACGTGGATTT", "relative binding free energy": 0}
{"sequence": "GTTGTCACGTGCTGAT", "relative binding free energy": 0.11}
{"sequence": "GGATGCACGTGTGCTA", "relative binding free energy": 0.08}
{"sequence": "GTTGGCACGTGTGTGT", "relative binding free energy": -0.05}
{"sequence": "TTGATCACGTGGCAGG", "relative binding free energy": 0.05}
{"sequence": "GCTGGCACGTGGGGCT", "relative binding free energy": -0.2}
{"sequence": "ACGGACACGTGTTGTG", "relative binding free energy": 0.03}
{"sequence": "TTGCACACGTGACGGG", "relative binding free energy": 0.11}
{"sequence": "AGGGCCACGTGATTGT", "relative binding free energy": 0.07}
{"sequence": "AGGCGCACGTGCTAGG", "relative binding free energy": -0.19}
{"sequence": "TTGGTCACGTGGCTAG", "relative binding free energy": -0.1}
{"sequence": "TTTTTCACGTGGTAGA", "relative binding free energy": 0.32}
{"sequence": "ATAAACACGTGTAATG", "relative binding free energy": 0.23}
{"sequence": "ATTATCACGTGGGCTA", "relative binding free energy": 0.02}
{"sequence": "TGATACACGTGTAAGT", "relative binding free energy": 0.18}
{"sequence": "GAAAGCACGTGTGTTG", "relative binding free energy": -0.09}
{"sequence": "CGGTACACGTGGAAGG", "relative binding free energy": 0.1}
{"sequence": "GTGGTCACGTGGGCTC", "relative binding free energy": 0}
{"sequence": "GTTACCACGTGGGGTC", "relative binding free energy": -0.01}
{"sequence": "CGCTTCACGTGGGAGG", "relative binding free energy": 0.06}
{"sequence": "TTAGTCACGTGCGGCG", "relative binding free energy": -0.07}
{"sequence": "TGGCTCACGTGGTTTA", "relative binding free energy": 0.18}
{"sequence": "CGGTGCACGTGAGGCT", "relative binding free energy": 0.02}
{"sequence": "CTGTTCACGTGTCTGT", "relative binding free energy": 0.18}
{"sequence": "AATGACACGTGACGGT", "relative binding free energy": 0.14}
{"sequence": "CGGCGCACGTGGTTTG", "relative binding free energy": -0.22}
{"sequence": "TTCGACACGTGGCGGG", "relative binding free energy": 0.14}
{"sequence": "GGGAACACGTGGGGTT", "relative binding free energy": -0.03}
{"sequence": "AGTGGCACGTGTTTGG", "relative binding free energy": -0.07}
{"sequence": "GTGTGCACGTGTATGA", "relative binding free energy": 0.07}
{"sequence": "CGATGCACGTGAGGGG", "relative binding free energy": 0.15}
{"sequence": "TGGGGCACGTGAATGA", "relative binding free energy": 0.22}
{"sequence": "AAGTTCACGTGATGAG", "relative binding free energy": 0.33}
{"sequence": "TGACGCACGTGGAGGG", "relative binding free energy": -0.11}
{"sequence": "AAGGTCACGTGGCTGT", "relative binding free energy": 0.06}
{"sequence": "CGGGGCACGTGTGTCA", "relative binding free energy": -0.06}
{"sequence": "GTGTTCACGTGGGGGT", "relative binding free energy": 0.2}
{"sequence": "GGTTACACGTGATCGA", "relative binding free energy": 0.38}
{"sequence": "AGTAGCACGTGAGGAT", "relative binding free energy": 0.09}
{"sequence": "TATATCACGTGATGTG", "relative binding free energy": 0.22}
{"sequence": "TTTGCCACGTGCGTGT", "relative binding free energy": -0.15}
{"sequence": "CGTGGCACGTGTTGTC", "relative binding free energy": 0.08}
{"sequence": "GGGATCACGTGGGCAA", "relative binding free energy": 0.02}
